Data taken from patent US20210292392A1.

Target: recombinant RBD of the spike protein of SARS-CoV-2 (residues Arg319-Phe541) (SARS-CoV-2), P0DTC2
Test: ELISA, coated SARS-CoV-2 RBD
Conditions: remark: other sources report otherwise

B1: P2B-2G4 (antibody)
heavy: QVQLVESGGGVVQPGRSLRLSCAASGFTFSSYGMHWVRQAPGKGLEWVAVIWYDGSNKYYADSVKGRFTISRDNSKNTLYLQMNSLRAEDTAVYYCARGAAMVWLDYWGQGTLVTVSS[gap - human IgG1 constant region]
light: QSALTQPRSVSGSPGQSVTISCTGTSSDVGGYNYVSWYQQHPGKAPKLMIYDVSKRPSGVPDRFSGSKSGNTASLTISGLQAEDEADYYCCSYAGSYTFVVFGGGTKLTVLGQPKAAPSVTLFPPSSEELQANKATLVCLISDFYPGAVTVAWKADSSPVKAGVETTTPSKQSNNKYAASSYLSLTPEQWKSHRSYSCQVTHEGSTVEKTVAPTECS
  EC50 (read off the curve): 0.5 µg/mL
